Measured values reported in PubChem BioAssay AID485344 (National Center for Advancing Translational Sciences (NCATS), 2010).
The campaign covered roughly 340,000 compounds. About 6,900 (2%) were called active. No stated cut-off is given here; in the data, active means inhibition above about 30%; inactive means below that, where a call was filed. Only a part is listed here, and it is no random draw. Entries without a call were filed so in the source.

Target: D(2) dopamine receptor (Homo sapiens) (UniProt P14416)
UniProt P14416, sequence (P14416 whole entry, looked up): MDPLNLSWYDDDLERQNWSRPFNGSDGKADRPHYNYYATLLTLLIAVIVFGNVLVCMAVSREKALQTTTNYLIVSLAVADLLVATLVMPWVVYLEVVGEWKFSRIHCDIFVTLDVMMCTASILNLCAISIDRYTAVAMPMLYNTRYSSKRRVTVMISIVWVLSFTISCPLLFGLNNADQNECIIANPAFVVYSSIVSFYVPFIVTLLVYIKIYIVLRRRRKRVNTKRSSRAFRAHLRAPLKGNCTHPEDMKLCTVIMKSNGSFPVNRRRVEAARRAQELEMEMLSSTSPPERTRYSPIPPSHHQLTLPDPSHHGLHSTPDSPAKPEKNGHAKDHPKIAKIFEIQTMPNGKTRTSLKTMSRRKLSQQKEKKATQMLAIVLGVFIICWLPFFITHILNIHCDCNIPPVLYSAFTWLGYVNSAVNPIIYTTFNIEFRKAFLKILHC
Assay: HTS Assay for Allosteric Antagonists of the Human D2 Dopamine Receptor: Primary Screen for Antagonists; further: 0% is about no effect
Conditions: HEK293 TREx D2 cells, calcium flux, dopamine EC80; at 10 µM; stronger effect = higher value
Method in brief: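 HEK293 T-REx D2 cells, tet-induced, calcium dye no-wash. Cpd pintool add, 180 s kinetic, then EC80 DA, 180 s kinetic. Ca flux read.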

Row | Compound | inhibition
1 | CCc1ccc(S(=O)(=O)c2cn(C)c3cc(N4CCC(C)CC4)c(F)cc3c2=O)cc1 | 0.71%
2 | CCOC(=O)c1ccc(NC(=O)c2c(NCc3cccs3)sc3c2CCCC3)cc1 | 6.81%
3 | Cn1c(=O)n(C)c2cc(N3CCOCC3)c(NC(=O)c3ccccc3Br)cc21 | 6.38%
4 | Cn1c(=O)c(=O)n(C)c2cc(S(=O)(=O)CCC(=O)Nc3ccc(F)cc3)ccc21 | 19.6%
5 | CCOc1ccccc1C(=O)Nc1c(C(=O)Nc2ccc(F)cc2)oc2ccccc12 | -0.177%
6 | CCOc1ccc(C2Nc3c(C)cccc3-c3cc(C)nn32)cc1 (configuration not stated) | -3.34%
7 | Cc1oc2ncnc(N3CCOCC3)c2c1C(=O)N(Cc1ccccc1)C(C)C | 6.92%
8 | COc1ccc(S(=O)(=O)NCC(c2ccco2)S(=O)(=O)c2cccs2)cc1C (configuration not stated) | 4.01%
9 | Cc1c(C(=O)N2CCCCCC2)c(S(=O)(=O)NCc2ccc(Br)cc2)c(C)n1C | 3.99%
10 | COc1ccc(/C=N/NC(=O)COc2ccccc2-c2ccccc2)cc1 | active: 39.5%
11 | Cc1ccc(-c2nc3ccccn3c2Nc2ccccc2C)s1 | -12.3%
12 | CCOc1ccc(CNC(=O)c2ccc3nc(C(C)C)oc3c2)cc1 | 15.2%
13 | COC(=O)c1ccc(NC(=O)NCCn2nnc3cc(S(=O)(=O)N(C)C)ccc32)cc1 | -7.85%
14 | COc1ccc(Nc2cc(C(=O)NC3CCC(C)CC3)c3ccccc3n2)cc1OC (configuration not stated) | -12.2%
15 | CCCOc1ccc(CNC(=O)Cn2ncn3c(cc4sc(CC)cc43)c2=O)cc1 | 1.71%
16 | CC(C)c1ccc(C(=O)Nc2cc(-c3ccccc3F)nn2-c2ccccc2)cc1 | -13.6%
17 | Cc1ccc(-c2nnn3c2nc(NCCc2ccc(Cl)cc2)c2ccccc23)cc1 | 4.08%
18 | O=C(NCc1ccc(F)cc1)c1ccc2c(O)c(S(=O)(=O)c3ccccc3)c(=O)[nH]c2c1 | 18.1%
19 | CCCCn1c(NCc2ccc(OC)cc2O)nc2ccccc21 | 3.93%
20 | COc1ccc(C)cc1-n1nnc(-c2nc(-c3ccccc3Cl)no2)c1N | 10.9%
21 | Cc1ccccc1NS(=O)(=O)c1ccc2[nH]cc(C(=O)N3CCCCC3)c(=O)c2c1 | 14.6%
22 | CCCCn1nc(NC(=O)c2cccc(Cl)c2)c2cc3ccccc3nc21 | -8.5%
23 | O=C(NCc1ccccc1)c1ccc(CSc2nc3cccnc3n2Cc2cccc(F)c2)cc1 | -16.8%
24 | CCCc1nc2ccccc2n2c(-c3ccccc3)c3c(=O)n(C)c(=O)n(C)c3c12 | 7.34%
25 | Cc1ccccc1CN1C(=O)c2ccccc2Sc2ccc(C(=O)N3CCCC3)cc21 | 4.52%

Row | Compound | inhibition
26 | CCOc1ccc(CNCc2c(C(=O)O)n(Cc3ccc(C)cc3)c3cc(C)ccc23)cc1 | 9.97%
27 | Cc1c(Cl)cccc1NC(=O)CN(CCc1ccccc1)S(=O)(=O)c1ccccc1 | 1.46%
28 | Cc1ccccc1Nc1ncnc2c1cnn2C | -26.9%
29 | CCCCN(CC)CCNC(=O)c1cc2c(=O)[nH]c3ccccc3c2n1C | -4.79%
30 | Cc1ccccc1OCC(=O)Nc1ccc(-c2nc3ncccc3o2)cc1 | 2.55%
31 | Cc1cccc(C(=O)N2CCc3cc(CNS(=O)(=O)c4ccc(Cl)s4)ccc32)c1 | 5.09%
32 | Cc1ccc(C(=O)Nc2ccc(-c3nc4ccccc4s3)cc2C)cc1C | -23.4%
33 | COc1ccc(N2CC(NC(=O)CCCc3ccccc3)CC2=O)cc1 (configuration not stated) | -21.9%
34 | CCOc1cc(CNC(=O)NC2COc3ccc(OC)cc3C2)cc(OCC)c1OCC (configuration not stated) | -4.28%
35 | COC(=O)c1ccccc1NC(=O)Nc1nnc(N2CCC(C)CC2)s1 | 6.94%
36 | CCOC(=O)c1cc(C)n(CC2CCC(C(=O)Nc3ccc(C)c(F)c3)CC2)c1C (configuration not stated) | -10.1%
37 | CN(C)CCCN1c2ccccc2CCc2ccc(Cl)cc21 | active: 89.1%
38 | c1ccc2cc3[nH]c(CN4CCCCC4)nc3cc2c1 | active: 58.4%
39 | O=C(COC(=O)c1ccc(O)cc1)Nc1ccccc1[N+](=O)[O-] | active: 38.5%
40 | O=C(Cn1c(=O)n(-c2ccccc2Cl)c(=O)c2sc3ccccc3c21)NC1CCCCC1 | -16.2%
41 | Cc1ccc(CN2CCN(CC(=O)Nc3ccc(C)c(C)c3)S2(=O)=O)cc1 | 5.64%
42 | Cc1ccccc1-n1nc(CO)c(C(=O)NCc2cccs2)n1 | -9.43%
43 | O=C(CCN1CCN(c2ccccc2)CC1)Nc1cccc(Br)c1 | active: 75.2%
44 | Cc1ccccc1OC(=O)CSc1nnc(-c2ccc(F)cc2)o1 | 14.6%
45 | Cc1c(NC(=O)c2nc3ccccc3nc2N2CCCCC2)cccc1[N+](=O)[O-] | -17.1%
46 | Cc1cccc2c1-c1sc(C(=O)N(C)c3cccc(C(F)(F)F)c3)cc1CO2 | -5.12%
47 | Cc1csc2nc(COc3ccccc3NC(=O)c3ccc(C(C)(C)C)cc3)cc(=O)n12 | 5.01%
48 | Cc1cccc(CNC(=O)CCCn2c(=O)c3cccn3c3ccc(F)cc32)c1 | -10.1%
49 | CCNC(=O)c1nn(-c2ccccc2C)nc1CO | -4.86%
50 | CC(=O)C1=C(c2ccc(C)c(C)c2)N(C(C)=O)n2c(nnc2-c2ccc(Cl)cc2)S1 | -12.3%

Row | Compound | inhibition
51 | Cc1cc(C(=O)NC2CCCCC2)c2cc(F)ccc2n1 | active: 31.5%
52 | CCC(=O)C1=C(c2cccc(OC)c2)N(C(=O)CC)n2c(nnc2C2CCCCC2)S1 | -23%
53 | Cc1cccc(C)c1OCc1nc2c3c(-c4ccccc4)c(-c4ccccc4)oc3ncn2n1 | -6.54%
54 | COc1cccc(NC(=O)C2CCN(c3nn4cc(-c5ccc(F)cc5)nc4s3)CC2)c1 | -11.3%
55 | CCn1cc(C(=O)N2CCN(c3ccc(C(C)=O)cc3)CC2)c2cc(OC)c(OC)cc2c1=O | -13.4%
56 | Cc1ccc(NC(=O)Cn2c(=O)oc3cc(S(=O)(=O)NCc4ccccc4)ccc32)cc1 | 5.03%
57 | Cc1cccc(CN2CCc3c([nH]c4ccccc34)C2)c1 | active: 56.2%
58 | Cc1ccc(-c2cc(C(F)(F)F)c(C#N)c(SCC(=O)Nc3ccccc3)n2)cc1 | 0.675%
59 | CCOC(=O)C1CCN(C(=O)c2ccc3c(=O)n4nc(Nc5cc(C)ccc5C)sc4nc3c2)CC1 | -14.6%
60 | Cc1ccc(CNC(=O)c2cc3c(=O)n(Cc4cccnc4)ccc3nc2C)cc1 | -2.62%
61 | CCOc1cccc(C2c3c(-c4cc(C)ccc4O)n[nH]c3C(=O)N2Cc2ccco2)c1 (configuration not stated) | 17.6%
62 | CCC(C)[C@H]1COCCS(=O)(=O)N1Cc1ccc(C)cc1 (some centres not stated) | active: 36.6%
63 | COc1ccc(OC)c(CCNC(=O)c2csc3c2CCCCC3)c1 | 7.6%
64 | Cc1cc(C)cc(NC(=O)CN2C(=O)c3ccccc3Sc3ncccc32)c1 | 16.2%
65 | CN1C(C(=O)Nc2ccc(F)cc2F)=CC(c2ccc3c(c2)OCO3)=NS1(=O)=O | 6.42%
66 | Cc1cc2nc(-c3ccc(NC(=O)C(C)C)cc3)oc2cc1C | active: 31.7%
67 | CCCCN(CC)CCCNC(=O)c1cc2c(=O)[nH]c3ccccc3c2s1 | -8.01%
68 | Cc1ccc(CN(Cc2ccco2)C(=O)COc2ccc(C(C)C)cc2)cc1 | 11.1%
69 | COc1ccc(CNC(=O)c2ccc3c(c2)nc2n3CCOC2)c(OC)c1 | -0.94%
70 | CCOc1ccc(CCNC(=O)CN2N=C(c3ccccc3)CCC2=O)cc1OCC | 3.53%
71 | Cc1ccc2nc(N(Cc3cccnc3)C(=O)CCS(=O)(=O)c3ccccc3)sc2c1 | -20.5%
72 | CC(=O)c1ccc(NC(=O)CSc2nc(-c3cccc(F)c3)nc3c2c(=O)n(C)c(=O)n3C)cc1 | 1.85%
73 | CCN1CCN(P2(=O)C=C(c3ccccc3)OC(c3ccccc3)=C2)CC1 | active: 84.1%
74 | COc1cc2[nH]c(=O)n(CCCC(=O)N3CCN(c4cccc(C(F)(F)F)c4)CC3)c(=O)c2cc1OC | -6.76%
75 | COc1ccccc1N1CCN(C(=O)CN2C(=O)COc3ccc(S(=O)(=O)N4CCC(C)CC4)cc32)CC1 | -2.51%

Row | Compound | inhibition
76 | Cc1ccc(NC(=O)C2CCN(c3cc(C)nc4c(-c5ccc(Cl)cc5)c(C)nn34)CC2)c(C)c1 | 6.63%
77 | COc1ccc(C(=O)CSc2c(C(C)C)cnc3c2c(=O)n(C)c(=O)n3C)cc1 | -2.37%
78 | CCOc1ccc(NC(=O)CSc2nc3c(oc4ccccc43)c(=O)n2CCOC)cc1 | -2.7%
79 | Cn1ncc2nc(SCC(=O)Nc3ccc(Br)cc3F)n(Cc3ccccc3)c(=O)c21 | 3.22%
80 | Cc1ccn2c(=O)cc(COc3ccc(NC(=O)c4ccccc4F)cc3)nc2c1 | -1.86%
81 | Cc1ccc(-n2nnc(C(=O)Nc3cc(F)ccc3F)c2C)cc1F | 13%
82 | Cc1ccc(C)c(OCC(=O)NNC(=O)CCN2CCN(c3ccccc3)CC2)c1 | active: 80%
83 | O=C(c1ccccc1)N1c2ncnn2C2(CCCCC2)[C@@H]2CCCC[C@@H]21 | 19.5%
84 | COc1ccccc1NC(=O)c1sc2nc3c(cc2c1N)CCCCCC3 | 16.1%
85 | Cc1ccc2c(c1)C(c1ccc(F)cc1)N(C(=O)c1ccc(OC(C)C)cc1)CC(=O)N2 (configuration not stated) | -2.03%
86 | Cc1ccccc1C(=O)Nc1cc(-c2ccc(Cl)cc2)nn1-c1ccccc1 | -10.6%
87 | Cc1nn(-c2ccc(N3CCOCC3)nn2)c(C)c1CCC(=O)NCc1ccc(F)cc1 | 14.2%
88 | Cc1ccc2oc3c(c(=O)c2c1)C1(C(=O)N(C)c2ccccc21)N(CCCO)C3=O (configuration not stated) | -2.59%
89 | CSc1cccc(NC(=O)C2CCN(C(=O)c3cnn(-c4ccccc4)c3-n3cccc3)CC2)c1 | -3.52%
90 | CCc1ccc(-n2c(=O)c3c4c(sc3n(CC(=O)c3ccc(Cl)cc3)c2=O)CCC4)cc1 | -8.73%
91 | COc1ccc2oc(-c3ccc(C)c(NC(=O)COc4cc(C)cc(C)c4)c3)nc2c1 | 8.75%
92 | Cc1ccc(Cl)cc1NC(=O)C(=O)NCC(c1cccnc1)N1CCc2ccccc21 (configuration not stated) | -4.66%
93 | O=C(CCS(=O)(=O)c1cccc2nsnc12)Nc1ccc(F)cc1 | 6.32%
94 | O=C(Nc1ccn(-c2ccccc2)n1)c1ccc(Cl)cc1 | active: 63.3%
95 | Cc1ccc(NC(=O)C(Cc2c[nH]c3ccccc23)NC(=O)OCC(C)C)cc1 (configuration not stated) | 6.95%
96 | COc1cc(NC(=O)c2nc(-c3ccncc3)no2)cc(OC)c1OC | -6.76%
97 | COc1ccc(/C=C\C(=O)NC2CC(=O)N(c3ccccc3)C2)cc1OC (configuration not stated) | -18.8%
